Laboratory results published in the supplement of paper PMC3334620.
Over roughly 33,000 sequences, “E-score (-0.5 to 0.5)” has its median near -0.035; the highest 2% begin near 0.35. The list shows a part of the results.

These sequences were tested against T1, Pdr3 (UniProt P33200) (assay: PBM E-score (8-mer binding enrichment) (E-score (-0.5 to 0.5)); higher = stronger / more preferred TF binding; most listed sequences are background and not binding sites). Conditions: protein concentration: 200 nM; construct: GST-full length.
T1 sequence: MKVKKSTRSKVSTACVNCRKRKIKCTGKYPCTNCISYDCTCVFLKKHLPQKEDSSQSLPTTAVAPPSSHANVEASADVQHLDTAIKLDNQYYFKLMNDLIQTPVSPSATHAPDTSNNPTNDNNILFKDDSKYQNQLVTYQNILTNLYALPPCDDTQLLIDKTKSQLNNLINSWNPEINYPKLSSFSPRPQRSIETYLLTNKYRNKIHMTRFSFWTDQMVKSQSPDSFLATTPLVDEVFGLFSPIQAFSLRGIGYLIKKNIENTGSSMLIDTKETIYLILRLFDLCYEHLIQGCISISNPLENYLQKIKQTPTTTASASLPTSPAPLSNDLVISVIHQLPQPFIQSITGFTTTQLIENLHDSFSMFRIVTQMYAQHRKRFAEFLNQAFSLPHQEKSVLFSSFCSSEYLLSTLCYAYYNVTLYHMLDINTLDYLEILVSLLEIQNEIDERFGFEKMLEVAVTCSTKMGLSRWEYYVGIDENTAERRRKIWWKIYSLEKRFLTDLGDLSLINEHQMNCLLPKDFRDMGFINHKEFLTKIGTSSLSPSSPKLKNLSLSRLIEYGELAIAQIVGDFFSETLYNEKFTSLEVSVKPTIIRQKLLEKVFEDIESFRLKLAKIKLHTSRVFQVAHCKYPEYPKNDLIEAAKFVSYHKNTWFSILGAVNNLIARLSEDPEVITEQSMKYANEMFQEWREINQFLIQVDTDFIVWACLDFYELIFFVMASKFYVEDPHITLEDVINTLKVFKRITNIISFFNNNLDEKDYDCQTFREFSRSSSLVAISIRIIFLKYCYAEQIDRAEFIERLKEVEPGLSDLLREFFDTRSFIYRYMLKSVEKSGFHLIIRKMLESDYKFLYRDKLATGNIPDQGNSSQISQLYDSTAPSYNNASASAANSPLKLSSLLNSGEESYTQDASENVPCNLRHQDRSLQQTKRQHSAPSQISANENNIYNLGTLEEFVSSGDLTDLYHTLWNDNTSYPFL
How it was run: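 Each ungapped eight-base word and its reverse complement, pooled, received an E-score from the Universal PBM Analysis Suite. Underlying scans, normalised with masliner, recorded fluorescent anti-GST bound to GST-tagged yeast transcription factors. These were applied at about 100-200 nM to universal all-10-mer Agilent arrays double-stranded by primer extension.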

| Sequence | PBM E-score |
| --- | --- |
| GGTAGCAA | -0.207 |
| AGTTAGAC | -0.129 |
| ATAGATCA | 0.0621 |
| AGTCAGAA | -0.0999 |
| CTGGCAAC | -0.0404 |
| TATCTAGA | -0.247 |
| ATTGTTGA | -0.0145 |
| AAGTAGTG | -0.0433 |
| ATAACACA | -0.0424 |
| ATGCAAGC | -0.0447 |
| CCGGATGC | 0.28 |
| AAGGAGAA | -0.086 |
| ATACTCTG | -0.0296 |
| ATAGTTGA | -0.0828 |
| ACCCAACA | -0.0419 |
| CTTGATTC | 0.0867 |
| ACGAAGAG | -0.128 |
| AGAGCTAA | -0.231 |
| ACGCTACT | 0.0666 |
| ATTTATAA | 0.141 |
| CAGGCAGC | -0.134 |
| AGATCATC | 0.0153 |
| ATCTAATC | 0.087 |
| ACAGAAGG | -0.101 |
| CTTGAGTA | -0.0589 |

| Sequence | PBM E-score |
| --- | --- |
| CTAGTAAG | -0.125 |
| GACCCGTA | -0.0759 |
| CTGAGTGC | -0.138 |
| CTACTAAA | -0.0977 |
| CTTGGTTA | -0.0398 |
| GCGGGCGA | 0.297 |
| AAGTTTTG | 0.0311 |
| CGAAACGA | -0.122 |
| CAGTCGGA | 0.174 |
| AGATCTAC | -0.128 |
| ATAGATGC | -0.023 |
| GTAAAGCA | 0.0229 |
| ATAAATAC | 0.176 |
| CCGGGCCA | 0.346 |
| AGTTCGCC | 0.115 |
| ATGTGGCA | -0.0762 |
| AATGCTAG | -0.0917 |
| CGGACGGC | 0.244 |
| AAGCGATA | -0.189 |
| AAGTAATG | 0.0905 |
| GTCAATAA | -0.222 |
| TATGATGA | -0.0562 |
| ACCTTATG | -0.202 |
| CGCTACAA | -0.121 |
| CGGAGATC | 0.302 |

| Sequence | PBM E-score |
| --- | --- |
| CAACTCTA | -0.0836 |
| ATGTAGTG | -0.0998 |
| GTTATAAA | -0.0728 |
| CTCACAGA | -0.102 |
| AGTTGCAG | -0.208 |
| GTTAGTAA | -0.222 |
| AAGACTTG | -0.23 |
| AGTGGTGA | 0.0718 |
| AGCCATAG | -0.18 |
| CCGGACGC | 0.33 |
| ACAAAACA | -0.0438 |
| CCTTTACC | -0.145 |
| CGATTGCG | 0.202 |
| ACTTGATA | -0.0264 |
| CTGCGCCC | -0.21 |
| GAGCCATC | -0.174 |
| CCACGAAA | -0.0437 |
| CCCTCCCG | 0.187 |
| CGACTCCG | 0.332 |
| TGGGCAAA | -0.033 |
| AAATAATC | -0.00849 |
| ACGCGTTC | 0.0909 |
| AAAGCGCA | -0.0202 |
| CTAAAATA | -0.227 |
| CTTCCCCC | -0.252 |

| Sequence | PBM E-score |
| --- | --- |
| ATGCATAC | -0.182 |
| CATGCCAA | -0.115 |
| ATGAAAGA | -0.0862 |
| AACTCCCG | 0.274 |
| TTACTCAA | -0.0468 |
| ACTCGGCC | 0.204 |
| AGGCCACT | 0.00259 |
| TCGCAGAA | -0.21 |
| AATAGTCT | -0.249 |
| TACCAAGA | -0.00658 |
| ATGTCGGC | -0.0499 |
| GCAGTTGA | -0.00471 |
| CCCCAGCA | -0.0718 |
| AACTGCCC | -0.0793 |
| ACAGTTTC | 0.122 |
| CCAAAACG | -0.134 |
| TACACCAA | -0.151 |
| CCACAGGA | -0.15 |
| AAGAGCCC | -0.00683 |
| AGTCCAAA | -0.165 |
| ACTTCAAT | 0.147 |
| ATTGTTGC | -0.0778 |
| CTGGCGTC | -0.0815 |
| CACCCGAC | 0.153 |
| ATTCCCTA | 0.0152 |

| Sequence | PBM E-score |
| --- | --- |
| CCTTTTCA | -0.118 |
| AAGCGCCA | -0.354 |
| ACGGAGTA | 0.297 |
| AGACATTG | -0.16 |
| TACTGAAA | 0.0701 |
| GGCTAAGA | -0.0826 |
| AACCAGTT | 0.033 |
| AGCGCCGG | 0.307 |
| CGTACACC | 0.0312 |
| GCCCCGAC | 0.231 |
| GGTTATGA | -0.146 |
| AAGCTCCC | -0.056 |
| GGTGATCA | -0.222 |
| CAGGCTCA | -0.126 |
| TATTATAA | -0.0981 |
| AGATGTCA | 0.0102 |
| ACGTACAC | -0.13 |
| AAAGGGCT | -0.343 |
| ACGCGCGT | 0.0776 |
| AGCCTCGG | 0.156 |
| ACTAATGC | 0.125 |
| AAGAACTG | -0.101 |
| ACGCCGTC | 0.191 |
| TGTGGGAA | -0.119 |
| CCGACCTC | 0.129 |

| Sequence | PBM E-score |
| --- | --- |
| CTCAGACA | -0.0115 |
| AATCATTG | -0.302 |
| AGCCTGAT | -0.176 |
| GGCGTCGA | 0.178 |
| ATACGCAC | 0.0411 |
| ATCGTCCA | -0.0669 |
| GAGAAGGA | -0.131 |
| CACTATAG | -0.187 |
| GCTACATA | -0.046 |
| CCACGACC | -0.186 |
| AGCTACTC | -0.0578 |
| CACATTAC | 0.0395 |
| AAAATGGG | -0.0238 |
| AGCTCGGC | 0.196 |
| AGCCACTA | -0.168 |
| CGGTCATC | 0.208 |
| GGATTTAC | 0.0693 |
| CCCCACGG | 0.26 |
| GAATCTCA | 0.0058 |
| GAAGGTAA | 0.124 |
| CTCAGATC | 0.11 |
| ACGTGCGG | 0.0591 |
| CTCTTCTA | -0.154 |
| ATATCCTA | -0.0576 |
| GCTCAATA | 0.0389 |

| Sequence | PBM E-score |
| --- | --- |
| CCAGATAC | -0.131 |
| CAGAATAA | -0.0298 |
| AGGCCTAG | -0.24 |
| AGTTCAAA | -0.0039 |
| AACCCTAT | -0.112 |
| GCATTATA | -0.112 |
| ATAAATAG | 0.0815 |
| CTGCAGAC | -0.111 |
| GCTCGGCA | 0.228 |
| CTGAGTAC | -0.153 |
| CCGGCATA | 0.269 |
| CGTCTAAA | -0.07 |
| GGTGCGAC | 0.0293 |
| CAATCTAC | -0.126 |
| CGTGGTTC | 0.179 |
| CACCCGTG | 0.232 |
| AATTCCCC | 0.203 |
| CTTTAGAC | -0.327 |
| GTCTATTA | -0.055 |
| ACTGCCCC | 0.0699 |
| AAGTTCGC | -0.118 |
| TCAGTAGA | -0.105 |
